{"source": "the supplement of paper PMC8728848", "binders": {"B1": {"name": "B160 (Bifidobacterium sp) (protein)", "chain": "MVSHNKRIVAALAAVAAMGIGLAGCGGSDTAGDTKSGSDGGVVNITYMHRLPDSEGMTLVNDIVAKWNKEHPNIQVKATKFDGNAADMIKKLETDVKAGNAPDLAQVGYAEVPEVFTKGLLQDVTDEAAKYKDDFASGPFALMQVDGKTYGLPQDTGPLTYFYNAAEFEKLGITVPKTADELIETAKKTAAQGKYIMTFTPDEAMMMMSGQAGASGPWYKVDGNSWVVNTQTKGSKAVADVYQQLIDNKAALTNPRWDASFDNSIQSGQLIGTVAAAWEAPLFIDSAGGTGAGEWKVTQLGDWFGNGTKTGANGGSGVAVLKGSKHPAEAMEFLDWFNTQVDDLVSQGLVVAATTADAKTPQKWSDYFSGQDVMAEFKTANDNMGDFTYMPGFSAVGAAMKQTAAKAADGSAKVSDVFDTAQKTSVDTLKNLGLSVKE"}}, "experiment_in_all_cases": "glycan array binding signal (z-score within array); higher = stronger binding", "conditions_in_all_cases": "glycan notation: IUPAC condensed, linker removed", "key": {"[1]": {"molecular_target": "Fuc(a1-2)Gal(b1-4)GlcNAc(b1-3)Gal(b1-4)GlcNAc(b1-3)Gal(b1-4)GlcNAc", "how_it_was_run": "(§1)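 The binding signal is a Z-score computed within each array and averaged over linkers. Arrays of the same protein sequence at different concentrations or buffers were also averaged together. Data originate from 3228 arrays in the Consortium for Functional Glycomics database, kept only where the protein sequence was available.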"}, "[2]": {"molecular_target": "Fuc(a1-2)Gal(b1-4)GlcNAc(b1-3)GalNAc", "how_it_was_run": "as §1"}, "[3]": {"molecular_target": "Fuc(a1-2)Gal(b1-4)GlcNAc(b1-3)[Fuc(a1-2)Gal(b1-4)GlcNAc(b1-6)]GalNAc", "how_it_was_run": "as §1"}, "[4]": {"molecular_target": "Fuc(a1-2)Gal(b1-4)GlcNAc(b1-3)[Fuc(a1-3)[Gal(b1-4)]GlcNAc(b1-6)]Gal(b1-4)Glc", "how_it_was_run": "as §1"}, "[5]": {"molecular_target": "Fuc(a1-2)Gal(b1-4)GlcNAc(b1-6)GalNAc", "how_it_was_run": "as §1"}, "[6]": {"molecular_target": "Fuc(a1-2)Gal(b1-4)GlcNAc6S", "how_it_was_run": "as §1"}, "[7]": {"molecular_target": "Fuc(a1-2)Gal(b1-4)[Fuc(a1-3)]GlcNAc", "how_it_was_run": "as §1"}, "[8]": {"molecular_target": "Fuc(a1-2)Gal(b1-4)[Fuc(a1-3)]GlcNAc(b1-2)Man(a1-3)[Fuc(a1-2)Gal(b1-4)[Fuc(a1-3)]GlcNAc(b1-2)Man(a1-6)]Man(b1-4)GlcNAc(b1-4)[Fuc(a1-6)]GlcNAc", "how_it_was_run": "as §1"}, "[9]": {"molecular_target": "Fuc(a1-2)Gal(b1-4)[Fuc(a1-3)]GlcNAc(b1-2)[Fuc(a1-2)Gal(b1-4)[Fuc(a1-3)]GlcNAc(b1-4)]Man(a1-3)[Fuc(a1-2)Gal(b1-4)[Fuc(a1-3)]GlcNAc(b1-2)Man(a1-6)]Man(b1-4)GlcNAc(b1-4)GlcNAc", "how_it_was_run": "as §1"}, "[10]": {"molecular_target": "Fuc(a1-2)Gal(b1-4)[Fuc(a1-3)]GlcNAc(b1-3)Gal(b1-4)[Fuc(a1-3)]GlcNAc", "how_it_was_run": "as §1"}, "[11]": {"molecular_target": "Fuc(a1-2)Gal(b1-4)[Fuc(a1-3)]GlcNAc(b1-3)Gal(b1-4)[Fuc(a1-3)]GlcNAc(b1-3)Gal(b1-4)[Fuc(a1-3)]GlcNAc", "how_it_was_run": "as §1"}, "[12]": {"molecular_target": "Fuc(a1-2)Gal(b1-4)[Fuc(a1-3)]GlcNAc(b1-3)GalNAc", "how_it_was_run": "as §1"}, "[13]": {"molecular_target": "Fuc(a1-2)Gal(b1-4)[Fuc(a1-3)]GlcNAc(b1-3)[Neu5Ac(a2-6)Gal(b1-4)GlcNAc(b1-6)]Gal(b1-4)Glc", "how_it_was_run": "as §1"}, "[14]": {"molecular_target": "Fuc(a1-2)Gal3S(b1-4)GlcNAc", "how_it_was_run": "as §1"}, "[15]": {"molecular_target": "Fuc(a1-2)Gal6S(b1-3)GlcNAc", "how_it_was_run": "as §1"}, "[16]": {"molecular_target": "Fuc(a1-2)Gal6S(b1-3)GlcNAc6S", "how_it_was_run": "as §1"}, "Fuc(a1-2)Gal6S(b1-4)Glc": {"molecular_target": "Fuc(a1-2)Gal6S(b1-4)Glc", "how_it_was_run": "as §1"}, "[17]": {"molecular_target": "Fuc(a1-2)Gal6S(b1-4)Glc6S", "how_it_was_run": "as §1"}, "Fuc(a1-2)[Gal(a1-3)]Gal": {"molecular_target": "Fuc(a1-2)[Gal(a1-3)]Gal", "how_it_was_run": "as §1"}, "[18]": {"molecular_target": "Fuc(a1-2)[Gal(a1-3)]Gal(b1-3)GalNAc", "how_it_was_run": "as §1"}, "[19]": {"molecular_target": "Fuc(a1-2)[Gal(a1-3)]Gal(b1-3)GalNAc(b1-3)Gal(a1-4)Gal(b1-4)Glc", "how_it_was_run": "as §1"}, "[20]": {"molecular_target": "Fuc(a1-2)[Gal(a1-3)]Gal(b1-3)GlcNAc", "how_it_was_run": "as §1"}, "[21]": {"molecular_target": "Fuc(a1-2)[Gal(a1-3)]Gal(b1-3)GlcNAc(b1-2)Man(a1-3)[Fuc(a1-2)[Gal(a1-3)]Gal(b1-3)GlcNAc(b1-2)Man(a1-6)]Man(b1-4)GlcNAc(b1-4)GlcNAc", "how_it_was_run": "as §1"}, "[22]": {"molecular_target": "Fuc(a1-2)[Gal(a1-3)]Gal(b1-3)GlcNAc(b1-2)Man(a1-3)[Fuc(a1-2)[Gal(a1-3)]Gal(b1-3)GlcNAc(b1-2)Man(a1-6)]Man(b1-4)GlcNAc(b1-4)[Fuc(a1-6)]GlcNAc", "how_it_was_run": "as §1"}, "[23]": {"molecular_target": "Fuc(a1-2)[Gal(a1-3)]Gal(b1-3)GlcNAc(b1-3)GalNAc", "how_it_was_run": "as §1"}, "[24]": {"molecular_target": "Fuc(a1-2)[Gal(a1-3)]Gal(b1-3)GlcNAc(b1-6)GalNAc", "how_it_was_run": "as §1"}, "[25]": {"molecular_target": "Fuc(a1-2)[Gal(a1-3)]Gal(b1-4)Glc", "how_it_was_run": "as §1"}, "[26]": {"molecular_target": "Fuc(a1-2)[Gal(a1-3)]Gal(b1-4)GlcNAc", "how_it_was_run": "as §1"}, "[27]": {"molecular_target": "Fuc(a1-2)[Gal(a1-3)]Gal(b1-4)GlcNAc(b1-2)Man", "how_it_was_run": "as §1"}, "[28]": {"molecular_target": "Fuc(a1-2)[Gal(a1-3)]Gal(b1-4)GlcNAc(b1-2)Man(a1-3)[Fuc(a1-2)[Gal(a1-3)]Gal(b1-4)GlcNAc(b1-2)Man(a1-6)]Man(b1-4)GlcNAc(b1-4)GlcNAc", "how_it_was_run": "as §1"}}, "note": "The list shows a part of the results.", "data": [{"binder": "B1", "values": [{"measurement": "glycan array binding signal (z-score)", "setting": "[1]", "value": -0.139}, {"measurement": "glycan array binding signal (z-score)", "setting": "[2]", "value": -0.162}, {"measurement": "glycan array binding signal (z-score)", "setting": "[3]", "value": -0.162}, {"measurement": "glycan array binding signal (z-score)", "setting": "[4]", "value": -0.166}, {"measurement": "glycan array binding signal (z-score)", "setting": "[5]", "value": -0.124}, {"measurement": "glycan array binding signal (z-score)", "setting": "[6]", "value": -0.17}, {"measurement": "glycan array binding signal (z-score)", "setting": "[7]", "value": -0.142}, {"measurement": "glycan array binding signal (z-score)", "setting": "[8]", "value": -0.142}, {"measurement": "glycan array binding signal (z-score)", "setting": "[9]", "value": -0.134}, {"measurement": "glycan array binding signal (z-score)", "setting": "[10]", "value": -0.185}, {"measurement": "glycan array binding signal (z-score)", "setting": "[11]", "value": -0.107}, {"measurement": "glycan array binding signal (z-score)", "setting": "[12]", "value": -0.102}, {"measurement": "glycan array binding signal (z-score)", "setting": "[13]", "value": -0.161}, {"measurement": "glycan array binding signal (z-score)", "setting": "[14]", "value": -0.182}, {"measurement": "glycan array binding signal (z-score)", "setting": "[15]", "value": -0.2}, {"measurement": "glycan array binding signal (z-score)", "setting": "[16]", "value": -0.145}, {"measurement": "glycan array binding signal (z-score)", "setting": "Fuc(a1-2)Gal6S(b1-4)Glc", "value": -0.15}, {"measurement": "glycan array binding signal (z-score)", "setting": "[17]", "value": -0.157}, {"measurement": "glycan array binding signal (z-score)", "setting": "Fuc(a1-2)[Gal(a1-3)]Gal", "value": -0.174}, {"measurement": "glycan array binding signal (z-score)", "setting": "[18]", "value": -0.172}, {"measurement": "glycan array binding signal (z-score)", "setting": "[19]", "value": -0.155}, {"measurement": "glycan array binding signal (z-score)", "setting": "[20]", "value": -0.163}, {"measurement": "glycan array binding signal (z-score)", "setting": "[21]", "value": -0.123}, {"measurement": "glycan array binding signal (z-score)", "setting": "[22]", "value": -0.129}, {"measurement": "glycan array binding signal (z-score)", "setting": "[23]", "value": -0.141}, {"measurement": "glycan array binding signal (z-score)", "setting": "[24]", "value": -0.15}, {"measurement": "glycan array binding signal (z-score)", "setting": "[25]", "value": -0.163}, {"measurement": "glycan array binding signal (z-score)", "setting": "[26]", "value": -0.161}, {"measurement": "glycan array binding signal (z-score)", "setting": "[27]", "value": -0.161}, {"measurement": "glycan array binding signal (z-score)", "setting": "[28]", "value": -0.169}]}]}
